# The other results are listed elsewhere or left out.
# B1: PX15618B-bfa-464-25-464 (Bacteroides fragilis) (protein)
# chain: DQEPPLYVNENDIFTSPTRIEATLNGLYAAIKNTGTKSLMGGKSYLVFDNRGDDVINISNNLVTLFNTYNMNVGITDAENADTWTYAYLAINKVNTFLQSLEGAREVAGENYDRYVQEAKFVRALAYYYLNNLYPTPYSVNPDAKSVPLRLTAEAGTENNNMPRSTVKQIYEHILSDLENISALDTEVNTYTGVTHATQAAANMLKMRVYMAMNEWDKAITAGELVTGYSLPEDVTLIYKAPYFSQESIFSLPMADTNIPNTQQSLAEYYYDGKIMLIDTKSGIMSKPDYSLATDKRIIAFKGEKDLLMKFTDAKTKLQWVPIFRYAETLLDLAECYANKAGGEATAKSLLKQVRGRSVDAATDPLNIDNLSGDALKEAIYNEKRLEFIGEGIRGIDIMRRGEHFIKVGENETINVGPSDEKYTWPIPQVELLLNKDINK
# How the values were obtained:
# Experiment in all cases: glycan array binding signal (z-score within array); higher = stronger binding
# Settings in all cases: glycan notation: IUPAC condensed, linker removed
# [1] = molecular target: Neu5Ac(a2-6)Gal(b1-4)GlcNAc(b1-6)GalNAc
# Procedure, shortened: (§1)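 Glycan array binding is given as a within-array Z-score, which can be read as non-binding when negative. The arrays, 3228 of them, came from the Consortium for Functional Glycomics database and were retained only where the protein sequence was available. Z-scores were averaged across arrays of the same protein sequence at different concentrations or buffers and across linkers.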
# [2] = molecular target: Neu5Ac(a2-6)Gal(b1-4)GlcNAc(b1-6)[Gal(b1-3)GlcNAc(b1-3)]Gal(b1-4)Glc
# Procedure, shortened: as §1
# [3] = molecular target: Neu5Ac(a2-6)Gal(b1-4)GlcNAc(b1-6)[Gal(b1-3)]GalNAc
# Procedure, shortened: as §1
# [4] = molecular target: Neu5Ac(a2-6)Gal(b1-4)GlcNAc6S
# Procedure, shortened: as §1
# Neu5Ac(a2-6)GalNAc = molecular target: Neu5Ac(a2-6)GalNAc
# Procedure, shortened: as §1
# [5] = molecular target: Neu5Ac(a2-6)GalNAc(b1-4)GlcNAc
# Procedure, shortened: as §1
# [6] = molecular target: Neu5Ac(a2-6)GalNAc(b1-4)GlcNAc6S
# Procedure, shortened: as §1
# [7] = molecular target: Neu5Ac(a2-6)GlcNAc(b1-4)GlcNAc
# Procedure, shortened: as §1
# [8] = molecular target: Neu5Ac(a2-6)GlcNAc(b1-4)GlcNAc(b1-4)GlcNAc
# Procedure, shortened: as §1
# Neu5Ac(a2-8)Neu5Ac = molecular target: Neu5Ac(a2-8)Neu5Ac
# Procedure, shortened: as §1
# [9] = molecular target: Neu5Ac(a2-8)Neu5Ac(a2-3)Gal(b1-3)GalNAc(b1-4)[Neu5Ac(a2-3)]Gal(b1-4)Glc
# Procedure, shortened: as §1
# [10] = molecular target: Neu5Ac(a2-8)Neu5Ac(a2-3)Gal(b1-3)GalNAc(b1-4)[Neu5Ac(a2-8)Neu5Ac(a2-3)]Gal(b1-4)Glc
# Procedure, shortened: as §1
# [11] = molecular target: Neu5Ac(a2-8)Neu5Ac(a2-3)Gal(b1-4)Glc
# Procedure, shortened: as §1
# [12] = molecular target: Neu5Ac(a2-8)Neu5Ac(a2-3)Gal(b1-4)GlcNAc
# Procedure, shortened: as §1
# [13] = molecular target: Neu5Ac(a2-8)Neu5Ac(a2-3)[Gal(b1-3)GalNAc(b1-4)]Gal(b1-4)Glc
# Procedure, shortened: as §1
# [14] = molecular target: Neu5Ac(a2-8)Neu5Ac(a2-3)[GalNAc(b1-4)]Gal(b1-4)Glc
# Procedure, shortened: as §1
# [15] = molecular target: Neu5Ac(a2-8)Neu5Ac(a2-8)Neu5Ac
# Procedure, shortened: as §1
# [16] = molecular target: Neu5Ac(a2-8)Neu5Ac(a2-8)Neu5Ac(a2-3)Gal(b1-4)Glc
# Procedure, shortened: as §1
# [17] = molecular target: Neu5Ac(a2-8)Neu5Ac(a2-8)Neu5Ac(a2-3)[Gal(b1-3)GalNAc(b1-4)]Gal(b1-4)Glc
# Procedure, shortened: as §1
# [18] = molecular target: Neu5Ac(a2-8)Neu5Ac(a2-8)Neu5Ac(a2-3)[GalNAc(b1-4)]Gal(b1-4)Glc
# Procedure, shortened: as §1
# [19] = molecular target: Neu5Ac(a2-8)Neu5Ac(a2-8)Neu5Ac(a2-8)Neu5Ac(a2-3)[GalNAc(b1-4)]Gal(b1-4)Glc
# Procedure, shortened: as §1
# [20] = molecular target: Neu5Ac(a2-8)Neu5Gc(a2-3)Gal(b1-4)GlcNAc
# Procedure, shortened: as §1
# [21] = molecular target: Neu5Ac(b2-6)Gal(b1-4)GlcNAc
# Procedure, shortened: as §1
# Neu5Ac(b2-6)GalNAc = molecular target: Neu5Ac(b2-6)GalNAc
# Procedure, shortened: as §1
# [22] = molecular target: Neu5Ac9Ac(a2-3)Gal(b1-3)GlcNAc
# Procedure, shortened: as §1
# [23] = molecular target: Neu5Ac9Ac(a2-3)Gal(b1-4)GlcNAc
# Procedure, shortened: as §1
# [24] = molecular target: Neu5Ac9Ac(a2-6)Gal(b1-4)GlcNAc
# Procedure, shortened: as §1
# [25] = molecular target: Neu5Gc(a2-3)Gal(b1-3)GlcNAc
# Procedure, shortened: as §1
# [26] = molecular target: Neu5Gc(a2-3)Gal(b1-3)[Fuc(a1-4)]GlcNAc
# Procedure, shortened: as §1
# Neu5Gc(a2-3)Gal(b1-4)Glc = molecular target: Neu5Gc(a2-3)Gal(b1-4)Glc
# Procedure, shortened: as §1
# [27] = molecular target: Neu5Gc(a2-3)Gal(b1-4)GlcNAc
# Procedure, shortened: as §1
# [28] = molecular target: Neu5Gc(a2-3)Gal(b1-4)GlcNAc(b1-3)Gal(b1-4)GlcNAc(b1-2)Man(a1-3)[Neu5Gc(a2-3)Gal(b1-4)GlcNAc(b1-3)Gal(b1-4)GlcNAc(b1-2)Man(a1-6)]Man(b1-4)GlcNAc(b1-4)GlcNAc
# Procedure, shortened: as §1
# [29] = molecular target: Neu5Gc(a2-3)Gal(b1-4)[Fuc(a1-3)]GlcNAc
# Procedure, shortened: as §1
# [30] = molecular target: Neu5Gc(a2-6)Gal(b1-4)GlcNAc
# Procedure, shortened: as §1
# Neu5Gc(a2-6)GalNAc = molecular target: Neu5Gc(a2-6)GalNAc
# Procedure, shortened: as §1
# [31] = molecular target: Neu5Gc(a2-8)Neu5Ac(a2-3)Gal(b1-4)GlcNAc
# Procedure, shortened: as §1
# [32] = molecular target: Neu5Gc(a2-8)Neu5Gc(a2-3)Gal(b1-4)GlcNAc
# Procedure, shortened: as §1
# [33] = molecular target: Neu5Gc(a2-8)Neu5Gc(a2-3)Gal(b1-4)GlcNAc(b1-3)Gal(b1-4)GlcNAc
# Procedure, shortened: as §1
binder,measurement,setting,value
B1,glycan array binding signal (z-score),[1],-0.484
same,glycan array binding signal (z-score),[2],-0.554
same,glycan array binding signal (z-score),[3],1.16
same,glycan array binding signal (z-score),[4],-0.437
same,glycan array binding signal (z-score),Neu5Ac(a2-6)GalNAc,-0.298
same,glycan array binding signal (z-score),[5],-0.248
same,glycan array binding signal (z-score),[6],-0.779
same,glycan array binding signal (z-score),[7],-0.354
same,glycan array binding signal (z-score),[8],-0.344
same,glycan array binding signal (z-score),Neu5Ac(a2-8)Neu5Ac,-0.092
same,glycan array binding signal (z-score),[9],-0.098
same,glycan array binding signal (z-score),[10],0.635
same,glycan array binding signal (z-score),[11],-0.012
same,glycan array binding signal (z-score),[12],-0.48
same,glycan array binding signal (z-score),[13],0.103
same,glycan array binding signal (z-score),[14],0.284
same,glycan array binding signal (z-score),[15],0.369
same,glycan array binding signal (z-score),[16],0.177
same,glycan array binding signal (z-score),[17],-0.03
same,glycan array binding signal (z-score),[18],-0.744
same,glycan array binding signal (z-score),[19],0.163
same,glycan array binding signal (z-score),[20],-0.104
same,glycan array binding signal (z-score),[21],-0.656
same,glycan array binding signal (z-score),Neu5Ac(b2-6)GalNAc,-0.7
same,glycan array binding signal (z-score),[22],-0.817
same,glycan array binding signal (z-score),[23],0.409
same,glycan array binding signal (z-score),[24],-0.361
same,glycan array binding signal (z-score),[25],-0.454
same,glycan array binding signal (z-score),[26],-0.415
same,glycan array binding signal (z-score),Neu5Gc(a2-3)Gal(b1-4)Glc,-0.315
same,glycan array binding signal (z-score),[27],0.039
same,glycan array binding signal (z-score),[28],0.195
same,glycan array binding signal (z-score),[29],0.009
same,glycan array binding signal (z-score),[30],0.351
same,glycan array binding signal (z-score),Neu5Gc(a2-6)GalNAc,0.373
same,glycan array binding signal (z-score),[31],-0.194
same,glycan array binding signal (z-score),[32],-0.429
same,glycan array binding signal (z-score),[33],-0.074

# — the supplement of paper PMC8728848
